# From the supplement of paper PMC8728848
# The other results are listed elsewhere or left out.
# B1: CVN (Nostoc ellipsosporum), P81180 (protein)
# chain: LGKFSQTCYNSAIQGSVLTSTCERTNGGYNTSSIDLNSVIENVDGSLKWQPSNFIETCRNTQLAGSSELAAECKTRAQQFVSTKINLDDHIANIDGTLKYE
# Key:
# Assay in all cases: glycan array binding signal (z-score within array); higher = stronger binding
# Settings in all cases: glycan notation: IUPAC condensed, linker removed
# [1] = target: Gal(a1-4)Gal(b1-4)GlcNAc(b1-2)Man(a1-3)[Gal(a1-4)Gal(b1-4)GlcNAc(b1-2)Man(a1-6)]Man(b1-4)GlcNAc(b1-4)GlcNAc
# How it was run: (§1)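 The binding signal is a Z-score computed within each array and averaged over linkers. Arrays of the same protein sequence at different concentrations or buffers were also averaged together. Data originate from 3228 arrays in the Consortium for Functional Glycomics database, kept only where the protein sequence was available.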
# [2] = target: Gal(a1-4)Gal(b1-4)GlcNAc(b1-3)Gal(b1-4)Glc
# How it was run: as §1
# Gal(a1-4)GlcNAc = target: Gal(a1-4)GlcNAc
# How it was run: as §1
# Gal(a1-6)Glc = target: Gal(a1-6)Glc
# How it was run: as §1
# Gal(b1-2)Gal = target: Gal(b1-2)Gal
# How it was run: as §1
# Gal(b1-3)Gal = target: Gal(b1-3)Gal
# How it was run: as §1
# Gal(b1-3)Gal(b1-4)GlcNAc = target: Gal(b1-3)Gal(b1-4)GlcNAc
# How it was run: as §1
# [3] = target: Gal(b1-3)Gal(b1-4)GlcNAc(b1-2)Man(a1-3)[Gal(b1-3)Gal(b1-4)GlcNAc(b1-2)Man(a1-6)]Man(b1-4)GlcNAc(b1-4)GlcNAc
# How it was run: as §1
# Gal(b1-3)GalNAc = target: Gal(b1-3)GalNAc
# How it was run: as §1
# [4] = target: Gal(b1-3)GalNAc(a1-3)[Fuc(a1-2)]Gal(b1-4)Glc
# How it was run: as §1
# [5] = target: Gal(b1-3)GalNAc(a1-3)[Fuc(a1-2)]Gal(b1-4)GlcNAc
# How it was run: as §1
# [6] = target: Gal(b1-3)GalNAc(b1-3)Gal(a1-4)Gal(b1-4)Glc
# How it was run: as §1
# [7] = target: Gal(b1-3)GalNAc(b1-4)Gal(b1-4)Glc
# How it was run: as §1
# [8] = target: Gal(b1-3)GalNAc(b1-4)[Neu5Ac(a2-3)]Gal(b1-4)Glc
# How it was run: as §1
# Gal(b1-3)GlcNAc = target: Gal(b1-3)GlcNAc
# How it was run: as §1
# [9] = target: Gal(b1-3)GlcNAc(a1-6)Gal(b1-4)GlcNAc
# How it was run: as §1
# [10] = target: Gal(b1-3)GlcNAc(b1-2)Man(a1-3)[Gal(b1-3)GlcNAc(b1-2)Man(a1-6)]Man(b1-4)GlcNAc(b1-4)GlcNAc
# How it was run: as §1
# [11] = target: Gal(b1-3)GlcNAc(b1-2)Man(a1-3)[Gal(b1-3)GlcNAc(b1-2)Man(a1-6)]Man(b1-4)GlcNAc(b1-4)[Fuc(a1-6)]GlcNAc
# How it was run: as §1
# [12] = target: Gal(b1-3)GlcNAc(b1-2)[Gal(b1-3)GlcNAc(b1-6)]Man(a1-6)[Gal(b1-3)GlcNAc(b1-2)Man(a1-3)]Man(b1-4)GlcNAc(b1-4)GlcNAc
# How it was run: as §1
# [13] = target: Gal(b1-3)GlcNAc(b1-3)Gal(b1-3)GlcNAc
# How it was run: as §1
# [14] = target: Gal(b1-3)GlcNAc(b1-3)Gal(b1-4)Glc
# How it was run: as §1
# [15] = target: Gal(b1-3)GlcNAc(b1-3)Gal(b1-4)GlcNAc
# How it was run: as §1
# [16] = target: Gal(b1-3)GlcNAc(b1-3)Gal(b1-4)GlcNAc(b1-6)[Gal(b1-3)GlcNAc(b1-3)]Gal(b1-4)Glc
# How it was run: as §1
# [17] = target: Gal(b1-3)GlcNAc(b1-3)Gal(b1-4)[Fuc(a1-3)]GlcNAc(b1-6)[Gal(b1-3)GlcNAc(b1-3)]Gal(b1-4)Glc
# How it was run: as §1
# [18] = target: Gal(b1-3)GlcNAc(b1-3)GalNAc
# How it was run: as §1
# [19] = target: Gal(b1-3)GlcNAc(b1-6)Gal(b1-4)GlcNAc
# How it was run: as §1
# [20] = target: Gal(b1-3)[Fuc(a1-4)]GlcNAc
# How it was run: as §1
# [21] = target: Gal(b1-3)[Fuc(a1-4)]GlcNAc(b1-2)Man(a1-3)[Gal(b1-3)[Fuc(a1-4)]GlcNAc(b1-2)Man(a1-6)]Man(b1-4)GlcNAc(b1-4)GlcNAc
# How it was run: as §1
# [22] = target: Gal(b1-3)[Fuc(a1-4)]GlcNAc(b1-2)Man(a1-3)[Gal(b1-3)[Fuc(a1-4)]GlcNAc(b1-2)Man(a1-6)]Man(b1-4)GlcNAc(b1-4)[Fuc(a1-6)]GlcNAc
# How it was run: as §1
# [23] = target: Gal(b1-3)[Fuc(a1-4)]GlcNAc(b1-3)Gal(b1-3)[Fuc(a1-4)]GlcNAc
# How it was run: as §1
# [24] = target: Gal(b1-3)[Fuc(a1-4)]GlcNAc(b1-3)Gal(b1-4)GlcNAc
# How it was run: as §1
# [25] = target: Gal(b1-3)[Fuc(a1-4)]GlcNAc(b1-3)Gal(b1-4)[Fuc(a1-3)]GlcNAc
# How it was run: as §1
# [26] = target: Gal(b1-3)[GlcNAc(b1-6)]GalNAc
# How it was run: as §1
# [27] = target: Gal(b1-3)[Neu5Ac(a2-6)]GalNAc
# How it was run: as §1
# [28] = target: Gal(b1-3)[Neu5Ac(a2-6)]GlcNAc(b1-6)Gal(b1-4)Glc
# How it was run: as §1
# [29] = target: Gal(b1-3)[Neu5Ac(b2-6)]GalNAc
# How it was run: as §1
# Gal(b1-4)Gal = target: Gal(b1-4)Gal
# How it was run: as §1
# [30] = target: Gal(b1-4)GalNAc(a1-3)[Fuc(a1-2)]Gal(b1-4)GlcNAc
# How it was run: as §1
# [31] = target: Gal(b1-4)GalNAc(b1-3)[Fuc(a1-2)]Gal(b1-4)GlcNAc
# How it was run: as §1
# Gal(b1-4)Glc = target: Gal(b1-4)Glc
# How it was run: as §1
# Gal(b1-4)Glc6S = target: Gal(b1-4)Glc6S
# How it was run: as §1
# Gal(b1-4)GlcNAc = target: Gal(b1-4)GlcNAc
# How it was run: as §1
# [32] = target: Gal(b1-4)GlcNAc(a1-6)Gal(b1-4)GlcNAc
# How it was run: as §1
# Gal(b1-4)GlcNAc(b1-2)Man = target: Gal(b1-4)GlcNAc(b1-2)Man
# How it was run: as §1
# [33] = target: Gal(b1-4)GlcNAc(b1-2)Man(a1-3)Man(b1-4)GlcNAc(b1-4)GlcNAc
# How it was run: as §1
binder,measurement,setting,value
B1,glycan array binding signal (z-score),[1],-0.281
same,glycan array binding signal (z-score),[2],-0.307
same,glycan array binding signal (z-score),Gal(a1-4)GlcNAc,-0.304
same,glycan array binding signal (z-score),Gal(a1-6)Glc,-0.174
same,glycan array binding signal (z-score),Gal(b1-2)Gal,-0.303
same,glycan array binding signal (z-score),Gal(b1-3)Gal,-0.303
same,glycan array binding signal (z-score),Gal(b1-3)Gal(b1-4)GlcNAc,-0.292
same,glycan array binding signal (z-score),[3],-0.017
same,glycan array binding signal (z-score),Gal(b1-3)GalNAc,-0.305
same,glycan array binding signal (z-score),[4],-0.299
same,glycan array binding signal (z-score),[5],-0.299
same,glycan array binding signal (z-score),[6],-0.304
same,glycan array binding signal (z-score),[7],-0.307
same,glycan array binding signal (z-score),[8],-0.306
same,glycan array binding signal (z-score),Gal(b1-3)GlcNAc,-0.304
same,glycan array binding signal (z-score),[9],-0.303
same,glycan array binding signal (z-score),[10],0.898
same,glycan array binding signal (z-score),[11],1.13
same,glycan array binding signal (z-score),[12],1.59
same,glycan array binding signal (z-score),[13],-0.304
same,glycan array binding signal (z-score),[14],-0.283
same,glycan array binding signal (z-score),[15],-0.296
same,glycan array binding signal (z-score),[16],-0.301
same,glycan array binding signal (z-score),[17],-0.265
same,glycan array binding signal (z-score),[18],-0.217
same,glycan array binding signal (z-score),[19],-0.307
same,glycan array binding signal (z-score),[20],-0.305
same,glycan array binding signal (z-score),[21],0.535
same,glycan array binding signal (z-score),[22],3.33
same,glycan array binding signal (z-score),[23],0.066
same,glycan array binding signal (z-score),[24],-0.304
same,glycan array binding signal (z-score),[25],-0.301
same,glycan array binding signal (z-score),[26],-0.3
same,glycan array binding signal (z-score),[27],-0.267
same,glycan array binding signal (z-score),[28],-0.299
same,glycan array binding signal (z-score),[29],-0.304
same,glycan array binding signal (z-score),Gal(b1-4)Gal,-0.276
same,glycan array binding signal (z-score),[30],-0.308
same,glycan array binding signal (z-score),[31],-0.302
same,glycan array binding signal (z-score),Gal(b1-4)Glc,-0.302
same,glycan array binding signal (z-score),Gal(b1-4)Glc6S,-0.221
same,glycan array binding signal (z-score),Gal(b1-4)GlcNAc,-0.307
same,glycan array binding signal (z-score),[32],-0.306
same,glycan array binding signal (z-score),Gal(b1-4)GlcNAc(b1-2)Man,-0.221
same,glycan array binding signal (z-score),[33],-0.299
